Laboratory results as given in paper PMC12002885.
Results are given in words; binding and its absence hold for the method and conditions named. In cells and extracts the contact can be indirect. Some binding calls cover weakened binding; strength is not graded here. For part of these data: Where a sequence is shown, tags or fusion partners need not be part of it. One block for each molecule: values may come before it.

By UniProt entry, the sequences of proteins in these tests, tags left out.
UniProt Q9CUN6: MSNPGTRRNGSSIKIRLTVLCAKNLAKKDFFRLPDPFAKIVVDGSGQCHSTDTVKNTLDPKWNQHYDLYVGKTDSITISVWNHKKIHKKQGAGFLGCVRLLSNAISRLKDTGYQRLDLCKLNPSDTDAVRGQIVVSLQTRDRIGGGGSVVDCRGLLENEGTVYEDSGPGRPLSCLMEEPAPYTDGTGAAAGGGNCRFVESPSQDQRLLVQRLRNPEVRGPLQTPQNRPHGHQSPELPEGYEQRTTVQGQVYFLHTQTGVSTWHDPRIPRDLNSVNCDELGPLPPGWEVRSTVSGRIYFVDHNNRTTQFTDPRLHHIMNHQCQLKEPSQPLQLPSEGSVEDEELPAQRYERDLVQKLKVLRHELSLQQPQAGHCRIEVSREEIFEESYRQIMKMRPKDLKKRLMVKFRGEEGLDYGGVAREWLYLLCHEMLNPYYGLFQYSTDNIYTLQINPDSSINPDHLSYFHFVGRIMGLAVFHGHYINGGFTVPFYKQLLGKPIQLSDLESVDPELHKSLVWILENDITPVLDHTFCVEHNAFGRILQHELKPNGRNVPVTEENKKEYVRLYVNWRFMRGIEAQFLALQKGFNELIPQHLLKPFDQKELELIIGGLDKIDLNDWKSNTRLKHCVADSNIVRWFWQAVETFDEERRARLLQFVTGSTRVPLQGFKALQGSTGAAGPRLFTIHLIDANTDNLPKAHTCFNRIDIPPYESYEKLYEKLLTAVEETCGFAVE
UniProt P37238: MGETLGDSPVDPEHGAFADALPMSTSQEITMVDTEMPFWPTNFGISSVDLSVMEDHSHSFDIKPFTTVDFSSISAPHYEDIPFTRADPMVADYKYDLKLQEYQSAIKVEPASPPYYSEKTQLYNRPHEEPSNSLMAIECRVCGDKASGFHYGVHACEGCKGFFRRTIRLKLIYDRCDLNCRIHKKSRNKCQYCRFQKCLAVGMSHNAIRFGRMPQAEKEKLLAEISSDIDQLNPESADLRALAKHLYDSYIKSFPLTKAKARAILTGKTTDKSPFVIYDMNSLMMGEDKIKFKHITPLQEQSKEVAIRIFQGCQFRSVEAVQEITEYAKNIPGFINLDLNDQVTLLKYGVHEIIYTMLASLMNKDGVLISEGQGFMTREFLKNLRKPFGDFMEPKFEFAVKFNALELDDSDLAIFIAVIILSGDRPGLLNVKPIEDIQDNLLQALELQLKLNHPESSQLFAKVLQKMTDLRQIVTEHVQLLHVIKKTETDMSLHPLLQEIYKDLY

Assays:
[1] = molecular target: T1, HA-tagged SDCCAG3 deletion mutant lacking the intermediate segment 146-261 (mouse) (UniProt A2AIW0); test: co-IP; HEK293T cells co-transfected with the plasmids (HA-Sdccag3 or its deletion mutants with Flag-Pparγ or Smurf1); HA, FLAG or SMURF1 antibody on protein A/G magnetic beads, 4°C 2 h, washed with PBST (0.5% Tween-20, pH 7.4); Western blot
T1 sequence: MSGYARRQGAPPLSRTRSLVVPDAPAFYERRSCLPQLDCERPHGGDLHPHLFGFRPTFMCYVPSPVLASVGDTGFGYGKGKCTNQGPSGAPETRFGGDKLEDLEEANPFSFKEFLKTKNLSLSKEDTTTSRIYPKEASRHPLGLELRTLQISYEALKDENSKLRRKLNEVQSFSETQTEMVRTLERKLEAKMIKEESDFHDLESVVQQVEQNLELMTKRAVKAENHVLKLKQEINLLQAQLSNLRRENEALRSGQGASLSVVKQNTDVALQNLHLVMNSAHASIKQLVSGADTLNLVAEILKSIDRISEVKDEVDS

[2] = molecular target: T2, HA-tagged SDCCAG3, full-length (mouse) (UniProt A2AIW0); test: as above
T2 sequence: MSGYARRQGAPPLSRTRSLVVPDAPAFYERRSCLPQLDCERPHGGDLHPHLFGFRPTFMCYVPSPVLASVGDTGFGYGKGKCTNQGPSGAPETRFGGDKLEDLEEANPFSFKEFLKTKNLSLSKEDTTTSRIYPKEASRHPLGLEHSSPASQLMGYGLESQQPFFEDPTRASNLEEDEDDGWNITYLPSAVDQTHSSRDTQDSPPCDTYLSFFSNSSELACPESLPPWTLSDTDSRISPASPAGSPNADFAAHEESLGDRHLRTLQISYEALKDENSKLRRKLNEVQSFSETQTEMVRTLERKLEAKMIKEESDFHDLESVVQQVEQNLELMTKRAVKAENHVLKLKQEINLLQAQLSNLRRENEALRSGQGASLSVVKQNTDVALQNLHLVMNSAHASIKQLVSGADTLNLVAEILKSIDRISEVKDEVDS

[3] = molecular target: T3, serum-defined colon cancer antigen 3 (SDCCAG3), endogenous in 3T3-L1 adipocytes (mouse (endogenous in 3T3-L1)) (UniProt A2AIW0); test: co-IP; endogenous proteins in lysate of 3T3-L1 adipocytes (IP lysis buffer); antibody on protein A/G magnetic beads, 4°C 2 h, washed with PBST (0.5% Tween-20, pH 7.4); Western blot
T3 sequence: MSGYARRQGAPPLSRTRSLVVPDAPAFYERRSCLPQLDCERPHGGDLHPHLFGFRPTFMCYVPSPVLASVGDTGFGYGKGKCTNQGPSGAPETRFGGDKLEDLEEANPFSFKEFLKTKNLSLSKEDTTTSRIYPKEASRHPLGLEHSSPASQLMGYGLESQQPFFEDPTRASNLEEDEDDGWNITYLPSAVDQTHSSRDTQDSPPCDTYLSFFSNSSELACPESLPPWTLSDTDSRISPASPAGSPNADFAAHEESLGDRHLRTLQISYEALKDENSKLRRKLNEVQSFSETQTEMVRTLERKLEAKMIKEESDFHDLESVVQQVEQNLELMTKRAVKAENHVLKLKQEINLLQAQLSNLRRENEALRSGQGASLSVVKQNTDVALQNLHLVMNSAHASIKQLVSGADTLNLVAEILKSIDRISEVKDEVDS

[4] = molecular target: SMURF1, exogenously expressed in HEK293T cells (UniProt Q9CUN6); test: co-IP; HEK293T cells co-transfected with the plasmids (HA-Sdccag3 or its deletion mutants with Flag-Pparγ or Smurf1); HA, FLAG or SMURF1 antibody on protein A/G magnetic beads, 4°C 2 h, washed with PBST (0.5% Tween-20, pH 7.4); Western blot
[5] = molecular target: SMAD specific E3 ubiquitin protein ligase 1 (SMURF1), in 3T3-L1 cells (mouse (endogenous in 3T3-L1)) (UniProt Q9CUN6); test: co-IP; endogenous proteins in lysate of 3T3-L1 adipocytes (IP lysis buffer); antibody on protein A/G magnetic beads, 4°C 2 h, washed with PBST (0.5% Tween-20, pH 7.4); Western blot

Molecule: FLAG-tagged PPARγ (from UniProt P37238 1-505)
binding [1]: no binding
binding [2]: binds

B1: HA-tagged SDCCAG3 deletion mutant lacking the intermediate segment 146-261 (protein, UniProt A2AIW0)
chain: MSGYARRQGAPPLSRTRSLVVPDAPAFYERRSCLPQLDCERPHGGDLHPHLFGFRPTFMCYVPSPVLASVGDTGFGYGKGKCTNQGPSGAPETRFGGDKLEDLEEANPFSFKEFLKTKNLSLSKEDTTTSRIYPKEASRHPLGLELRTLQISYEALKDENSKLRRKLNEVQSFSETQTEMVRTLERKLEAKMIKEESDFHDLESVVQQVEQNLELMTKRAVKAENHVLKLKQEINLLQAQLSNLRRENEALRSGQGASLSVVKQNTDVALQNLHLVMNSAHASIKQLVSGADTLNLVAEILKSIDRISEVKDEVDS
binding [4]: no binding

B3: HA-tagged SDCCAG3, full-length (protein, UniProt A2AIW0 1-432)
chain: MSGYARRQGAPPLSRTRSLVVPDAPAFYERRSCLPQLDCERPHGGDLHPHLFGFRPTFMCYVPSPVLASVGDTGFGYGKGKCTNQGPSGAPETRFGGDKLEDLEEANPFSFKEFLKTKNLSLSKEDTTTSRIYPKEASRHPLGLEHSSPASQLMGYGLESQQPFFEDPTRASNLEEDEDDGWNITYLPSAVDQTHSSRDTQDSPPCDTYLSFFSNSSELACPESLPPWTLSDTDSRISPASPAGSPNADFAAHEESLGDRHLRTLQISYEALKDENSKLRRKLNEVQSFSETQTEMVRTLERKLEAKMIKEESDFHDLESVVQQVEQNLELMTKRAVKAENHVLKLKQEINLLQAQLSNLRRENEALRSGQGASLSVVKQNTDVALQNLHLVMNSAHASIKQLVSGADTLNLVAEILKSIDRISEVKDEVDS
binding [4]: binds

Next, values leading:

binding [3]: binds
Molecule: peroxisome proliferator-activated receptor gamma (PPARγ), endogenous in 3T3-L1 adipocytes (from UniProt P37238 1-505)

binding [5]: binds
B2: serum-defined colon cancer antigen 3 (SDCCAG3), endogenous in 3T3-L1 adipocytes (protein, UniProt A2AIW0 1-432)
chain: MSGYARRQGAPPLSRTRSLVVPDAPAFYERRSCLPQLDCERPHGGDLHPHLFGFRPTFMCYVPSPVLASVGDTGFGYGKGKCTNQGPSGAPETRFGGDKLEDLEEANPFSFKEFLKTKNLSLSKEDTTTSRIYPKEASRHPLGLEHSSPASQLMGYGLESQQPFFEDPTRASNLEEDEDDGWNITYLPSAVDQTHSSRDTQDSPPCDTYLSFFSNSSELACPESLPPWTLSDTDSRISPASPAGSPNADFAAHEESLGDRHLRTLQISYEALKDENSKLRRKLNEVQSFSETQTEMVRTLERKLEAKMIKEESDFHDLESVVQQVEQNLELMTKRAVKAENHVLKLKQEINLLQAQLSNLRRENEALRSGQGASLSVVKQNTDVALQNLHLVMNSAHASIKQLVSGADTLNLVAEILKSIDRISEVKDEVDS
